{"source": "PubChem BioAssay AID504332", "about": "(National Center for Advancing Translational Sciences (NCATS), 2011)", "note": "The whole screen tested about 350,000 compounds, of which about 31,000 (8.9%) were called active. Inconclusive means that the source gave no clear call. Such entries were picked first, then a sample of the others. Calls follow the shape of the dose curve; as a rule, active = well fitted inhibition curve with a large enough effect; inconclusive = small, poorly fitted or top-dose-only effect; inactive = no such curve, though single readings can be large or run the other way. Potencies beside an inconclusive call are fits to weak or partial responses and may not hold up. % is scaled to controls: 0 for no effect and ±100 for the full control effect; potency is read from the fitted curve at half-maximal effect; tags tell the direction and shape of the fitted curve.", "data": [{"molecular_target": "Histone-lysine N-methyltransferase EHMT2 (Homo sapiens) (UniProt Q96KQ7)", "sequence (Q96KQ7 whole entry, looked up)": "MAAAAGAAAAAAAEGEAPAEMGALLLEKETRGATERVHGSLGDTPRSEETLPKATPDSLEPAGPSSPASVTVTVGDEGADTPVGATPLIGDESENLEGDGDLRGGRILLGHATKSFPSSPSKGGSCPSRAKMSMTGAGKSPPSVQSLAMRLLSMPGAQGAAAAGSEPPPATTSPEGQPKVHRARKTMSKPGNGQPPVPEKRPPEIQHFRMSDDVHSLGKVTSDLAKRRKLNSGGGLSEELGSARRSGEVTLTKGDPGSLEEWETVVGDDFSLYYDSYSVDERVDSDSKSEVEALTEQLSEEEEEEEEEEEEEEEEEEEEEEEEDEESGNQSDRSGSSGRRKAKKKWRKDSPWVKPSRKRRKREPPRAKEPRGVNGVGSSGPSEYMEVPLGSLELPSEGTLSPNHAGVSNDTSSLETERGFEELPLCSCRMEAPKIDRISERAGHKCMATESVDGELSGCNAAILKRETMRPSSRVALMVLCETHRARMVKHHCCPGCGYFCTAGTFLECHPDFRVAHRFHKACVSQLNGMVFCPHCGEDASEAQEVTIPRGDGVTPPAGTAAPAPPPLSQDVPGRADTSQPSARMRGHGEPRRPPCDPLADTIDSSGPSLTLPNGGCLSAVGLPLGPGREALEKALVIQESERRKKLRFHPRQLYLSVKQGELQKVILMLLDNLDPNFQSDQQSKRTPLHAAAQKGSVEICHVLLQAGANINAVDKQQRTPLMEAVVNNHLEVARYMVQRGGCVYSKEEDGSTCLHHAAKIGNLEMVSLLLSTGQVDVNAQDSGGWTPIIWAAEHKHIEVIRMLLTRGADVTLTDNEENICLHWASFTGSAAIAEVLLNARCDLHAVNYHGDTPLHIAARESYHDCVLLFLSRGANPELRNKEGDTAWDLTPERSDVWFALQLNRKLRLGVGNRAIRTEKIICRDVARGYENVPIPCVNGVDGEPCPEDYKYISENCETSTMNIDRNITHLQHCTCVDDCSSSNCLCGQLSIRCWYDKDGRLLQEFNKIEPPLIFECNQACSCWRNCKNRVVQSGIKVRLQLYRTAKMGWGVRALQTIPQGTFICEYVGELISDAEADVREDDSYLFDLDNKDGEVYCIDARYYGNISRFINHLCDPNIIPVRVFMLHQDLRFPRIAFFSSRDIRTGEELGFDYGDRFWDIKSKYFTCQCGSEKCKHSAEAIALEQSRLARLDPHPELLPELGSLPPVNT", "assay": "qHTS Assay for Inhibitors of Histone Lysine Methyltransferase G9a; also: nearly all actives have a fitted effect of over 75% in size", "settings": "G9a H3K9 monomethylation, AlphaScreen, 2 h; activity, negative = inhibition: at 59 µM (top of the series) unless noted", "procedure,_shortened": "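Methyltransferase reactions run at room temperature for 2 h (20 nM enzyme, 500 nM biotin-H3K9 peptide, 20 uM SAM) after a 15 min compound preincubation; product detected by AlphaScreen beads and anti-H3K9me1 antibody.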", "values": [{"smiles": "O=[N+]([O-])c1ccc(N2CCOCC2)cc1NC(c1ccccc1)c1ccccc1", "Potency": "inconclusive: 25.1 µM [inhibitor, partial curve, poor fit]"}, {"smiles": "CC(=O)c1cccc(N(CC(=O)NC2CCCCC2)C(=O)c2csnn2)c1", "activity, negative = inhibition": "inactive: 31.7% [at 102 µM]"}, {"smiles": "CCOCCCNC(=O)/C(C#N)=C/c1ccccc1F", "activity, negative = inhibition": "inactive: 6.27% [at 102 µM]"}, {"smiles": "Cc1ccc(NC2=NCC(=O)N2CCc2ccccc2)cc1C", "activity, negative = inhibition": "inactive: -36.1% [at 12.7 µM]"}, {"smiles": "COc1ccc(-c2nc(-c3ccccc3)nc(Cl)c2C#N)cc1", "Potency": "inconclusive: 79.4 µM [inhibitor, single point]"}, {"smiles": "COc1ccc(S(=O)(=O)Nc2cccc(S(=O)(=O)NC3=NCCC3)c2)cc1[N+](=O)[O-]", "Potency": "inconclusive: 56.2 µM [inhibitor, partial curve, poor fit]"}, {"smiles": "Cc1cc(/C=N/NC(=O)c2ccccn2)c(C)n1-c1cccc([N+](=O)[O-])c1", "Potency": "inconclusive: 56.2 µM [inhibitor, partial curve, poor fit]"}, {"smiles": "Cc1cc([N+](=O)[O-])ccc1NCc1ccco1", "Potency": "inconclusive: 11.2 µM [inhibitor, full curve, poor fit]"}, {"smiles": "CCOC(=O)N1CCN(c2nc3ccccn3c(=O)c2C=O)CC1", "activity, negative = inhibition": "inactive: 47.8% [at 102 µM]"}, {"smiles": "CC(C)OCc1ccc(C(=O)N2CCN(S(=O)(=O)c3ccc(Br)s3)CC2)cc1", "Potency": "inconclusive: 0.708 µM [inhibitor, partial curve, poor fit]"}, {"smiles": "Cc1ccc(/C=N/NC(=O)CNC(=O)Cc2ccccc2)o1", "Potency": "inconclusive: 28.2 µM [inhibitor, single point]"}, {"smiles": "CC(=O)CCc1c(C)c2cccc(C)c2[nH]c1=O", "Potency": "inconclusive: 8.91 µM [inhibitor, partial curve, poor fit]"}, {"smiles": "CC1=C(C(=O)OCc2ccccc2)C(c2ccc(-c3ccccc3)cc2)NC(=O)N1CCCCCC(=O)O", "note": "(centres undefined)", "Potency": "active: 35.5 µM"}, {"smiles": "CC(OC(=O)c1ccc2c(c1)C(=O)N(Cc1ccncc1)C2=O)C(=O)Nc1cccc(Cl)c1Cl", "note": "(centres undefined)", "Potency": "active: 89.1 µM"}, {"smiles": "O=C1Cc2ccccc2N1c1c(Cl)cccc1Cl", "Potency": "inconclusive: 20 µM [inhibitor, single point]"}, {"smiles": "CC(NO)C(C)(C)NO", "note": "(centres undefined)", "activity, negative = inhibition": "inconclusive: -91.7% [inhibitor]"}, {"smiles": "CCOC(=O)N1CCc2c(sc(NCc3cccc(F)c3)c2C(=O)Nc2ccc(OC)cc2OC)C1", "Potency": "inconclusive: 2.51 µM [inhibitor, partial curve, poor fit]"}, {"smiles": "CCC(=O)Nc1ccccc1-c1nc2ccccc2n(CC(=O)c2ccc(Cl)cc2)c1=O", "Potency": "inconclusive: 31.6 µM [inhibitor, partial curve, poor fit]"}, {"smiles": "O=C(NC(=S)N1CCN(c2ccccn2)CC1)c1ccco1", "Potency": "active: 56.2 µM"}, {"smiles": "CC(C)OC(=O)C(C(=O)C(F)(F)F)c1cc(NS(=O)(=O)c2ccc3c4c(cccc24)C(=O)N3)ccc1O", "note": "(centres undefined)", "Potency": "inconclusive: 25.1 µM [inhibitor, single point]"}, {"smiles": "Cc1cc(C)n(C2=NS(=O)(=O)c3ccccc32)n1", "Potency": "inconclusive: 31.6 µM [inhibitor, single point]"}, {"smiles": "CCNc1ncnc2c1nnn2C", "activity, negative = inhibition": "inactive: 14.8%"}, {"smiles": "CCOC(=O)c1c(C)[nH]c(CCC(=O)Nc2c(C)cccc2CC)c1C", "activity, negative = inhibition": "inactive: 9.92%"}, {"smiles": "Cc1cccc([N+](=O)[O-])c1NC(=O)COC(=O)C1CC2CCCC(C1)C2=O", "note": "(centres undefined)", "activity, negative = inhibition": "inactive: 5.09%"}, {"smiles": "O=C(Nc1ccccc1N1CCCC1)c1cccc(F)c1", "Potency": "active: 35.5 µM"}, {"smiles": "CCN(CC)S(=O)(=O)c1ccc(N2CCN(C)CC2)c(NC(=O)Nc2ccc(C)cc2)c1", "Potency": "inconclusive: 50.1 µM [inhibitor, partial curve]"}, {"smiles": "COc1c(N)c2ccccc2[nH]c1=O", "Potency": "inconclusive: 15.8 µM [inhibitor, partial curve, poor fit]"}, {"smiles": "Cc1nnsc1Sc1ccccc1C(=O)O", "Potency": "inconclusive: 56.2 µM [inhibitor, partial curve]"}, {"smiles": "O=C1C(C=NCCN2CCOCC2)=C(O)c2ccccc21", "Potency": "inconclusive: 89.1 µM [inhibitor, single point]"}, {"smiles": "CC(=O)N1CCC2(CC1)C(C#N)=C(N)Oc1n[nH]c(C)c12", "activity, negative = inhibition": "inactive: 14.9%"}, {"smiles": "CC(C)Cc1nnc(NC(=O)CCC(=O)NC2CCCC2)s1", "activity, negative = inhibition": "inactive: 21.5% [at 102 µM]"}, {"smiles": "Cc1cccc(NC(=O)CSc2cc(C)c(C#N)c3nc4ccccc4n23)c1", "Potency": "inconclusive: 50.1 µM [inhibitor, partial curve, poor fit]"}, {"smiles": "COc1ccc(OC)c(Nc2cc(-c3ccccc3)nc(N)n2)c1", "activity, negative = inhibition": "inconclusive: -77% [inhibitor]"}, {"smiles": "COc1ccc2c(Sc3ccc(C)cc3)c(C(=O)NCc3ccc(F)cc3)[nH]c2c1", "Potency": "inconclusive: 31.6 µM [inhibitor, single point]"}, {"smiles": "Cn1c(N)c(C(=O)CSc2nc(C3CC3)n(-c3ccccc3)n2)c(=O)n(C)c1=O", "activity, negative = inhibition": "inactive: 13.7% [at 12.7 µM]"}, {"smiles": "S=C(NCCN1CCOCC1)Nc1ccc(-c2nc3ccccc3[nH]2)cc1", "Potency": "active: 44.7 µM"}, {"smiles": "O=C(CSc1nnc(COc2ccccc2)n1Cc1ccco1)NCc1ccco1", "Potency": "inconclusive: 79.4 µM [inhibitor, single point]"}, {"smiles": "CCOC(=O)c1ccc(N2C(=O)c3n[nH]c(-c4ccco4)c3C2c2ccc(OCC)cc2)cc1", "note": "(centres undefined)", "activity, negative = inhibition": "inactive: -56.9%"}, {"smiles": "Cc1ccc(S(=O)(=O)N2CCOCC2)cc1NC(=O)CSc1nnc2cc(C)c3ccccc3n12", "Potency": "inconclusive: 31.6 µM [inhibitor, single point]"}, {"smiles": "CCN(CC(=O)Nc1ccc([N+](=O)[O-])cc1OC)c1ccccc1", "Potency": "inconclusive: 70.8 µM [inhibitor, single point]"}, {"smiles": "COc1ccc(C)cc1-n1nnnc1SCC(=O)NNC(=O)c1ccc([N+](=O)[O-])cc1", "Potency": "inconclusive: 56.2 µM [inhibitor, partial curve, poor fit]"}, {"smiles": "CN1CCN(CCCNC(=O)c2cc3c(=O)n(C)c4ccccc4c3s2)CC1", "Potency": "inconclusive: 89.1 µM [inhibitor, single point]"}, {"smiles": "CC1(C)Cc2c(sc3c2C2=NCCN2C=N3)CO1", "Potency": "inconclusive: 28.2 µM [inhibitor, single point]"}, {"smiles": "CCN(CC)S(=O)(=O)c1cccc(C(=O)NC2=NCCS2)c1", "Potency": "active: 50.1 µM"}, {"smiles": "CCN(CC)C(=O)CC(c1ccc(F)cc1)c1ccco1", "note": "(centres undefined)", "Potency": "active: 14.1 µM"}, {"smiles": "CCn1c2ccccc2c2cc(NC(=O)Cc3ccc(S(=O)(=O)N4CCOCC4)s3)ccc21", "Potency": "inconclusive: 3.55 µM [inhibitor, single point]"}, {"smiles": "O=C(C1=C(O)C(=O)N(CC2CCCO2)C1c1cccc(Cl)c1)c1ccco1", "note": "(centres undefined)", "Potency": "inconclusive: 89.1 µM [inhibitor, single point]"}, {"smiles": "COc1ccccc1NC(=O)Cc1noc(CSc2nnc(C)n2C)n1", "activity, negative = inhibition": "inactive: 6.32% [at 102 µM]"}, {"smiles": "CCOC(=O)C1=C(N)OC2=C(C(=O)CC(C)(C)C2)C1c1ccco1", "note": "(centres undefined)", "Potency": "active: 22.4 µM"}, {"smiles": "O=S(=O)(NCc1nc2cccnc2n1Cc1ccccc1)c1ccc2c(c1)CCCC2", "activity, negative = inhibition": "inactive: -8.05%"}, {"smiles": "COc1ccc(NC(C)C(=O)N2CCN(Cc3ccccc3)CC2)cc1", "note": "(centres undefined)", "Potency": "inconclusive: 89.1 µM [inhibitor, single point]"}, {"smiles": "Cc1cc(Br)cc(C)c1OCCCCN(C)C", "activity, negative = inhibition": "inactive: -2.03% [at 0.501 µM]"}, {"smiles": "Cc1cc(C)c2c(N=NN3CCCCC3)[nH]nc2n1", "Potency": "active: 44.7 µM"}, {"smiles": "CCCN(CCC)C(=O)Cn1c(=O)n(-c2ccccc2)c(=O)c2c3c(sc21)CCCC3", "activity, negative = inhibition": "inactive: -4.12%"}, {"smiles": "CCCCc1nn2c(=O)cc(COC(=O)c3cccc(NC(=O)CCc4ccccc4)c3)nc2s1", "activity, negative = inhibition": "inactive: 4.66% [at 12.7 µM]"}, {"smiles": "CCOc1ccc(/C=C2\\SC(=S)N(CC(=O)NCCCN3CCOCC3)C2=O)cc1", "Potency": "inconclusive: 79.4 µM [inhibitor, partial curve, poor fit]"}, {"smiles": "N#Cc1nc(-c2cccs2)oc1N1CCOCC1", "Potency": "inconclusive: 89.1 µM [inhibitor, single point]"}, {"smiles": "COC(=O)/C=C/c1ccsc1NC(C)=O", "Potency": "inconclusive: 89.1 µM [inhibitor, single point]"}, {"smiles": "CCc1ccc(-n2c(=O)c3c(C)c(C)sc3n(CC(=O)NCc3ccc(C)cc3)c2=O)cc1", "activity, negative = inhibition": "inactive: 35.5%"}, {"smiles": "O=C(NCC#CCSc1nnc(-c2cccc3ccccc23)o1)c1cccs1", "Potency": "active: 3.16 µM"}, {"smiles": "O=C(CCCCn1c(=O)c2ccccc2n(Cc2ccc(F)cc2)c1=O)NCc1ccco1", "Potency": "inconclusive: 8.91 µM [inhibitor, partial curve]"}, {"smiles": "CN(C)S(=O)(=O)c1cccc(C(=O)NCc2ccco2)c1", "activity, negative = inhibition": "inconclusive: -60.6% [inhibitor]"}, {"smiles": "CCN(CCCNC(=O)CN(C)S(=O)(=O)c1ccc2c(c1)CCC(=O)N2)c1cccc(C)c1", "Potency": "inconclusive: 39.8 µM [inhibitor, single point]"}, {"smiles": "Cc1cc(C)nc(Sc2ncnc(N)c2[N+](=O)[O-])n1", "activity, negative = inhibition": "inactive: -4.5% [at 12.7 µM]"}, {"smiles": "CC1(C)CC(=O)C2=C(C1)N(Cc1ccco1)C(=O)C2(NC(=O)c1cccnc1)C(F)(F)F", "note": "(centres undefined)", "Potency": "inconclusive: 50.1 µM [inhibitor, partial curve, poor fit]"}, {"smiles": "CCCn1c(C(C)Nc2nc(C)cs2)nc2cc(Cl)c(Cl)cc21", "note": "(centres undefined)", "Potency": "inconclusive: 70.8 µM [inhibitor, single point]"}, {"smiles": "CCOC(=O)/C=C/[C@H]1CCc2cccc(Cl)c2O1", "activity, negative = inhibition": "inactive: 30.6% [at 2.33 µM]"}, {"smiles": "CCn1cc(C(=O)O)c(=O)c2cnc(N3CCN(C(=S)NC(=O)c4ccc(Cl)cc4)CC3)nc21", "Potency": "inconclusive: 89.1 µM [inhibitor, partial curve, poor fit]"}, {"smiles": "Cc1c[n+]([O-])n(-c2ccc(C(=O)O)cc2)n1", "Potency": "inconclusive: 0.631 µM [inhibitor, partial curve, poor fit]"}]}]}
